Target: T1, human CEA (N-terminal domain) recombinant fragment containing a C-terminal 6xHis tag and a N-terminal BirA … (human, site specifically biotinylated using BirA (E. coli biotin ligase) at the BirA target sequence)
T1 construct: Expressed in CHO-S cells and immobilised on a streptavidin chip for all BIAcore runs; also called biotinylated CEA; human CEA N-terminal fragment
T1 chain: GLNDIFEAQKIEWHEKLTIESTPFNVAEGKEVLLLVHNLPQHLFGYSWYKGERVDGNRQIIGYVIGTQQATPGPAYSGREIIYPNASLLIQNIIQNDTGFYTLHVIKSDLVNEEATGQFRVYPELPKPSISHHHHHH
Experiment: SPR (BIAcore X100), monomeric scFv over biotinylated CEA N-terminal domain on streptavidin chip

B1: G9 antibody in scFv format (scFv)
scFv: [about 100 residues omitted here]LTYARFDYWGQGTLVTVSSGGGGSGGGGSGGGGEIVLTQSPGTLSLSPGERATLSCRASQSVSSSYLAWYQQKPGQAPRLLIYGASSRATGIPDRFSGSGSGTDFTLTISRLEPEDFAVYYCQQSGRVPWTFGQGTKVEIK
notes: also called G9 scFv
In the case of B1, the Kd is reported as 640 nM.

From patent US20260226189A1 (PHILOGEN S P A, published 2026)
